The values below come from paper PMC4336329 (PLoS ONE, 2015).

Out of some 310,000 compounds screened, about 14,000 (4.5%) showed an effect of 50% or more. Effects have a minus sign here. The list shows a part of the results.
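Further: peak tail current of the secondary pulse compared with the same well before compound.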

Sequence of human ether-à-go-go-related gene (hERG) potassium channel (Q12809 whole entry, looked up): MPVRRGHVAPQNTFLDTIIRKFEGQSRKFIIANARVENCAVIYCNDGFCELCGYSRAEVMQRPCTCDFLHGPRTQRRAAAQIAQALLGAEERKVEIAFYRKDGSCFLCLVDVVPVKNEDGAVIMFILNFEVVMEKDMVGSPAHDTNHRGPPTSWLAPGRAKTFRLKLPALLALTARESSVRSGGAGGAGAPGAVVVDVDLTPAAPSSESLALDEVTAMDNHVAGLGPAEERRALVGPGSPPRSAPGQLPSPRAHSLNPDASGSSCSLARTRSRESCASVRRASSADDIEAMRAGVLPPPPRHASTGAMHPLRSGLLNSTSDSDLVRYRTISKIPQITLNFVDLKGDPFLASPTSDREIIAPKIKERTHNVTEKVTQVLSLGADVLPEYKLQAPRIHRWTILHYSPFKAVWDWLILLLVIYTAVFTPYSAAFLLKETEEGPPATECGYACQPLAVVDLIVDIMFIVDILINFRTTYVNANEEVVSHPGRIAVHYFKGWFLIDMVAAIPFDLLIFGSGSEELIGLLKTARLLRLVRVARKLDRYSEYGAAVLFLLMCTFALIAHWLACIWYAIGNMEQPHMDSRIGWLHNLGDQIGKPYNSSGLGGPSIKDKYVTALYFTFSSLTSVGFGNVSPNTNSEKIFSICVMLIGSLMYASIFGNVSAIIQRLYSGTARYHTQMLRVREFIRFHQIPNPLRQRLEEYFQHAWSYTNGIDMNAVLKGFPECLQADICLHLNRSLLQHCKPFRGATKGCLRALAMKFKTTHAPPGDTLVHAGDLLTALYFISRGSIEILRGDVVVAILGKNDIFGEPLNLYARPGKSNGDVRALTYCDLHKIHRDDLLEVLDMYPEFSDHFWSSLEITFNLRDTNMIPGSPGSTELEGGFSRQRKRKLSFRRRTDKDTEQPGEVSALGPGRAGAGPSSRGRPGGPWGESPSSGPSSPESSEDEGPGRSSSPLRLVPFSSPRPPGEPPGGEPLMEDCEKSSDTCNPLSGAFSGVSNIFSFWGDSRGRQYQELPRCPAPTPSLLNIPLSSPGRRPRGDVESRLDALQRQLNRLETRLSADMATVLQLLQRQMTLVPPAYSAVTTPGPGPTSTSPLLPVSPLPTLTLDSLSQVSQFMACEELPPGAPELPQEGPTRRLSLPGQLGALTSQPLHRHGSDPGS

The test concerns the target human ether-à-go-go-related gene (hERG) potassium channel (human, UniProt Q12809). In words: primary screen, population patch clamp on CHO cells stably expressing hERG.
Regarding `COc1cccc(NC(=O)CSc2nc3ncc(Br)cc3[nH]2)c1`, the “hERG current change (%, negative = inhibition) at 10uM” value is recorded as 7.25%.
The value for `Cc1c(Cl)cccc1NC(=S)NNS(=O)(=O)c1ccc([N+](=O)[O-])cc1` was 25.7%; that for `COC(=O)c1c(NC(=O)C(=O)NCCCN2CCOCC2)sc2c1CC(C)(C)OC2` was 15.2%; that for `FC(F)(F)c1ccccc1CN1CCCC(N2CCN(c3ccccc3)CC2)C1` (stereo not drawn) was -0.712%.
With `Cc1noc(C)c1NC(=O)N1CCN(Cc2ccccc2)CC1`, the “hERG current change (%, negative = inhibition) at 10uM” value came out at 8.04%.
The value for `O=S(=O)(c1cccc(C(F)(F)F)c1)N(CCCN1CCOCC1)Cc1cccs1` was -74.9%; that for `CC12CC(c3ccccc3O1)C(C(=O)NCc1ccccc1)C(=O)N2` (stereo not drawn) was -4.7%; that for `CC1CCc2sc(NC(=O)c3ccc(N4C(=O)CCC4=O)cc3)c(C(N)=O)c2C1` (stereo not drawn) was -1.74%.
The value for `COc1ccc(N(CC(=O)N/N=C/c2ccc3c(c2)OCO3)S(=O)(=O)c2ccccc2)cc1` was 3.83%.
For the compound `CCc1cc(OCCCSc2nc(C)cc(=O)[nH]2)ccc1Cl`, the “hERG current change (%, negative = inhibition) at 10uM” value is listed as -4.68%.
As for `Cc1cc(NC(=O)CCl)nn1C`, the figure is 29.8%; as for `COC(=O)c1cn(NC(=O)Cn2nc([N+](=O)[O-])c(Cl)c2C)c(=O)c2ccccc12`, 18.6%; as for `CC(=O)Nc1ccc(S(=O)(=O)Nc2nc(C)cc(-n3nc(C)cc3C)n2)cc1`, -6.52%.
As for `CCC(C)NS(=O)(=O)c1ccc(N)cc1` (stereo not drawn), the figure is 28.3%; as for `CCOC(=O)C1CCCN(C(=O)CSc2ccccc2)C1` (stereo not drawn), 2.84%.
As for `O=C(Nc1cccc(C(=O)O)c1)Nc1ccccc1Cl`, the figure is 4.11%; as for `C=CCn1c(SCC(=O)NC2CC2)nnc1-c1cccc(OC)c1`, 2.24%.
Turning to `CCCNC(=O)c1n[nH]c(=O)c2ccccc12`, the “hERG current change (%, negative = inhibition) at 10uM” value is on record as 18%.
The value for `CC1CCN(C(=O)CN(Cc2ccc(F)cc2)S(C)(=O)=O)CC1` was 3.57%; that for `COc1ccc(S(=O)(=O)N2CCN(Cc3ccccc3)CC2)cc1OC` was 5.45%.
The value for `O=C1c2ccccc2CCC12N=NCC2c1ccc(Br)cc1` (stereo not drawn) was -10.8%; that for `O=c1c(-c2nc3ccccc3s2)cccn1Cc1ccc(Cl)c(Cl)c1` was -2.04%.
For the compound `CCC1Oc2ccccc2N(CC(=O)NCCCN2CCN(c3ccc(OC)cc3)CC2)C1=O` (stereo not drawn), the “hERG current change (%, negative = inhibition) at 10uM” value is on record as -50.4%.
As for `Cc1ccccc1C(=O)Nc1nc2c(C)csc2c(=O)s1`, the figure is 15.8%; as for `COc1ccc(NC(=O)CCNS(=O)(=O)c2cccc3nsnc23)cc1OC`, -4.64%.
Take `CCCCSc1nnc(CSc2ncccn2)n1C`: the “hERG current change (%, negative = inhibition) at 10uM” value is listed as -0.237%.
As for `COc1cc(CC(=O)NCc2ccccn2)cc(OC)c1OC`, the figure is 2.42%.
As for `Cc1cccc(NC(=S)/N=C(\N)Nc2nc(C)c3ccccc3n2)c1`, the figure is -4.99%; as for `Cc1cccc(NC(=S)NC(=O)c2ccco2)c1C`, 0.486%.
As for `CC(C)NC(=O)c1sc2nc3c(c(-c4cccs4)c2c1N)CN(C)CC3`, the figure is -25.8%; as for `O=C(N/N=C/C1C(=O)NC(=S)N(c2ccccc2)C1=O)c1cc(Br)c(O)c(Br)c1` (stereo not drawn), 11.1%.
Consider `COc1ccccc1C(O)(C(=O)NN(C)c1ccccc1)c1ccccc1OC`, for which the “hERG current change (%, negative = inhibition) at 10uM” value is 9.03%.
For the compound `COC(=O)c1[nH]c2cccc(OC)c2c1NC(=O)CN1CC2(C)CC1CC(C)(C)C2` (stereo not drawn), the “hERG current change (%, negative = inhibition) at 10uM” value is on record as 9.92%.
As for `CN1C(=O)c2ccccc2NC(=O)[C@]12O[C@@H]2c1ccccc1`, the figure is 2.2%.
For the compound `Cn1nnc2cc(C(=O)Nc3ccccc3F)ccc21`, the “hERG current change (%, negative = inhibition) at 10uM” value was found to be 13.6%.
As for `COc1cccc(-n2c(C)cc(/C=C3/C(=N)N4C(=NC3=O)SN=C4S(C)(=O)=O)c2C)c1`, the figure is 11%; as for `CC(C)NC(=O)NC(=O)COC(=O)c1ccc(S(=O)(=O)Nc2ccccc2)cc1`, -4.82%.
Take `CCOc1cc(C(=S)N2CCCC2)ccc1OC`: the “hERG current change (%, negative = inhibition) at 10uM” value amounted to 16.6%.
The value for `O=C(NC1CCCCCC1)c1ccc2c(=O)n3c(nc2c1)CCCCC3` was -51%; that for `CCCN1CCc2nc(SCC(=O)Nc3ccc(C)c(Cl)c3)[nH]c(=O)c2C1` was -0.316%.
The value for `CSc1ccccc1C(=O)NC1CCCN(Cc2ccccc2F)C1` (stereo not drawn) was -11.5%; that for `COCCSc1ccccc1C(=O)Nc1cc(C)on1` was -5.92%.
Take `COc1ccccc1-c1n[nH]c(=S)n1N`: the “hERG current change (%, negative = inhibition) at 10uM” value was determined as 16.3%.
The value for `O=C(O)CCC(=O)N1CCc2cc(S(=O)(=O)N3CCN(c4ccc(F)cc4)CC3)ccc21` was 12.5%.
The value for `O=S(=O)(N/N=C/c1ccc(Cl)cc1)c1ccc(Cc2ncc(C(F)(F)F)cc2Cl)s1` was 15.4%.
Regarding `CC[n+]1ccc(/C=C2\Sc3ccccc3N2CCCS(=O)(=O)[O-])c2ccccc21`, the “hERG current change (%, negative = inhibition) at 10uM” value was determined as 21.2%.
As for `CCCCNC(=O)CCCCCNS(=O)(=O)c1ccc(Br)cc1`, the figure is -49.6%; as for `CCOC(=O)N1CCC(Nc2cccc(SC)c2)CC1`, 4.75%.
The value for `C/C(=N\Nc1cc(Cl)nc(C)n1)c1ccc(C)cc1` was 9.02%; that for `O=C(CN(C(=O)CNS(=O)(=O)c1ccccc1)c1ccc2c(c1)OCCO2)NC1CCCCC1` was -10.2%; that for `CCCCn1c(N)c(N(CCC(C)C)C(=O)COC(=O)c2ccccc2)c(=O)[nH]c1=O` was 3.79%.
In the case of `O=C(CSc1ncnc2sccc12)Nc1ccccc1`, the “hERG current change (%, negative = inhibition) at 10uM” value was determined as 21.2%.
As for `Cc1cccnc1NC(=O)c1ccc2nc(N)sc2c1`, the figure is 6.12%; as for `C=CCN1C(=O)c2ccccc2Sc2ccc(C(=O)NC(C)C)cc21`, 7.49%.
In the case of `CCOC(=O)C[C@H]1c2cc(F)ccc2S(=O)(=O)N1C1CCCC1`, the “hERG current change (%, negative = inhibition) at 10uM” value was -5.43%.
The value for `O=C(NCc1ccccn1)C1CCCCC1` was 13.9%.
For `CN(c1ccc(C(=O)N2CCN(c3ccc(F)cc3)CC2)cc1)S(C)(=O)=O`, the “hERG current change (%, negative = inhibition) at 10uM” value is -25.4%.
